Data on 56 compounds can be found in ChEMBL document CHEMBL4888484, “Replenishing the malaria drug discovery pipeline: Screening and hit evaluation of the MMV Hit Generation Library 1 (HGL1) against asexual blood stage Plasmodium falciparum ,using a nano luciferase reporter read-out” (2022).

SMILES strings stand for the structures. About 540 (0.36%) of roughly 150,000 compounds showed an effect of 50% or more. This is one part of the list.

In this test the test system is Plasmodium falciparum. Description: Primary screen in NF54 nanoGlo assay, in single point, at 2uM, 72h; a lower Z score goes with more inhibition. Particulars: timepoint 72 hour. The class given is functional, Erythrocyte.
One may read the % Inhibition as the change of the read-out against control, counted positive when it falls. With `CC(C)=CCNC(=O)N1CCC(CF)CC1`, the “% Inhibition” value was -7% and the Z score is recorded as 1.35.

For `CN(Cc1cccc(N(C)C)c1)C(=O)[C@H]1CCc2cn[nH]c2C1`, the “% Inhibition” value is -3% and the Z score stood at 0.54.

For the compound `c1ccc(-c2nnc(-c3noc(CCc4cscn4)n3)s2)cc1`, the “% Inhibition” value is given as -5% and the Z score was determined as 0.69.

Take `O=C(Cc1cscn1)N[C@@H]1COCC[C@@H]1Oc1cccc(F)c1`: the “% Inhibition” value is listed as 2% and the Z score is -0.21.

Turning to `CC1CCN(S(=O)(=O)N2CCC(C(=O)N3CC[C@H](CCOc4ccccc4)C3)CC2)CC1`, the “% Inhibition” value is on record as -10% and the Z score was found to be 1.86.

As to `COc1ncccc1CN(C)Cc1nc(C)c[nH]1`, the “% Inhibition” value is given as -7% and the Z score worked out at 1.24.

With `Cc1ccc2c(c1C)N(C(=O)c1coc(-c3cccnc3)n1)CCC2`, the “% Inhibition” value is reported as -2% and the Z score came to 0.4.

Consider `O=C(Nc1cc(C(F)(F)F)ccc1O)[C@H]1CCOC1`, for which the “% Inhibition” value is 5% and the Z score is listed as -1.05.

Take `CCc1nc(OC)ccc1NC(=O)[C@@H]1Cc2ccccc2CO1`: the “% Inhibition” value came out at 1% and the Z score is reported as -0.09.

With `CN(C(=O)NC[C@H]1CN(C2CC2)CCO1)c1ccc(F)cc1`, the “% Inhibition” value is reported as 17% and the Z score was -2.54.

With `CC1(C)CN(C(=O)c2cnc3[nH]c(=O)[nH]c(=O)c3c2)C1(C)C`, the “% Inhibition” value is 4% and the Z score is given as -0.51.

`Cc1nn2cnnc2c(O)c1Br`: the “% Inhibition” value is recorded as -31% and the Z score turned out to be 3.64.

As for `COCCN(CCOc1ccccc1F)Cc1cc(Cl)c(OCC(=O)O)c(OC)c1`, the “% Inhibition” value is recorded as 6% and the Z score is -1.

On to `CCCn1nc(Cn2cncn2)nc1-c1cccc(Cn2cccn2)c1`, for which the “% Inhibition” value is given as 0% and the Z score was determined as 0.04.

In the case of `COC(C)(C)CC(C)NC1CCCCC1C(N)=O` (configuration not stated), the “% Inhibition” value is reported as -13% and the Z score turned out to be 1.87.

Regarding `C=CCO[C@@H](C)C(=O)N1CCN(CC(C)(C)O)CC1`, the “% Inhibition” value amounted to 8% and the Z score is listed as -1.16.

Regarding `O=C(NC[C@H]1CC[C@@H](c2ccccc2)O1)OC1CCC1`, the “% Inhibition” value was -3% and the Z score is reported as 0.44.

In the case of `Cc1c[nH]c(CN(C)C(=O)c2cc(N)ccn2)n1`, the “% Inhibition” value is given as -3% and the Z score came out at 0.44.

With `CC(C)c1cc(C(=O)N2CCc3ccncc32)cc(O)n1`, the “% Inhibition” value is given as -7% and the Z score turned out to be 1.13.

As for `Cc1sc(C(=O)O)cc1CN1CCOCC1C1CCCO1` (configuration not stated), the “% Inhibition” value is -8% and the Z score was 0.93.

`COc1ccc(C[C@@]2(CCC(=O)N3CCC4(C=Cc5ccccc54)CC3)CCC(=O)N2)cc1`: the “% Inhibition” value was determined as 1% and the Z score is -0.26.

For `CC(C)COCC(NC(=O)C1CCC(NC(=O)OC(C)(C)C)C1)c1ccco1` (configuration not stated), the “% Inhibition” value is on record as -3% and the Z score was determined as 0.37.

Take `CN1CCN(C(=O)CN2C(=O)c3cc(Cl)c(Cl)cc3C2=O)CC1`: the “% Inhibition” value is recorded as -2% and the Z score was 0.26.

Turning to `CCOc1cccc(C(=O)N[C@H]2C[C@@H](OCC)C2)c1`, the “% Inhibition” value is reported as -7% and the Z score is on record as 0.96.

As to `CC(O)C1CN(C(=O)c2ccc3c(c2)CCCCC3=O)CCO1` (configuration not stated), the “% Inhibition” value is -4% and the Z score stood at 0.72.

For the compound `Cc1ccc(C(=O)NCCS(=O)(=O)N2CCCC2)n1C(F)F`, the “% Inhibition” value is 14% and the Z score is -2.02.

Consider `CS(=O)(=O)Cc1ccc(Cl)c(NC(=O)NCCC2CC2)c1`, for which the “% Inhibition” value is reported as -6% and the Z score amounted to 0.87.

As to `COc1ccc(C)cc1N1C(=O)[C@@H]2C[C@H]1CN2C(=O)c1ccc(C(F)(F)F)cc1`, the “% Inhibition” value is -3% and the Z score is listed as 0.34.

Consider `Cc1cccc2[nH]c(COCc3nc([C@H]4CCOC4)no3)nc12`, for which the “% Inhibition” value is -19% and the Z score amounted to 2.02.

On to `Cc1ccc(F)c(C(=O)N2CCC([C@@H](O)CCc3ccccc3)CC2)c1F`, for which the “% Inhibition” value is -18% and the Z score stood at 2.75.

Regarding `CN(C[C@H]1COCCO1)C(=O)c1ccc(-c2ccc(O)c(C(=O)O)c2)cc1`, the “% Inhibition” value is -2% and the Z score worked out at 0.26.

As to `O=C(Cc1nc(-c2cccnc2)n[nH]1)Nc1ccc(F)c(F)c1`, the “% Inhibition” value is -15% and the Z score came out at 2.39.

As to `CCn1cnnc1CN(C)C(=O)c1cccc(-c2ccnc(OC)c2C#N)c1`, the “% Inhibition” value is reported as 0% and the Z score was determined as 0.08.

With `CC(C)(C)OC(=O)N1CCC2(CC1)OCCC2=O`, the “% Inhibition” value is on record as -10% and the Z score was determined as 0.95.

Regarding `COc1ccc([C@@H]2C=C(c3ccc(Cl)cc3)Nc3ncnn32)cc1OCc1ccccc1`, the “% Inhibition” value was 6% and the Z score is -0.94.

For `COc1ncccc1C(=O)N[C@@H](C)COc1ccc(F)cc1F`, the “% Inhibition” value is -3% and the Z score was found to be 0.23.

`CCc1[nH]nc(NCc2cccc(OC)n2)c1C`: the “% Inhibition” value is -2% and the Z score was 0.21.

As for `CC1(C)CCCC[C@@H]1NC(=O)c1cccn2c(=O)[nH]nc12`, the “% Inhibition” value is on record as -8% and the Z score is 0.97.

As for `Cc1cccc(Cn2nc(-c3ccc(C)o3)nc2[C@H]2CCNC2)c1`, the “% Inhibition” value is given as -20% and the Z score is on record as 1.97.

For `OCCn1nc(C2CC2)nc1CCc1ccc(-c2ccccc2)cc1`, the “% Inhibition” value is reported as -14% and the Z score stood at 1.98.

On to `CC(C)(C)c1nc(CCNC(=O)N[C@@]2(C)CCOC2)cs1`, for which the “% Inhibition” value is listed as -11% and the Z score is 1.48.

`Cc1nc(NC(=O)NCCc2cscn2)ccc1Br`: the “% Inhibition” value is given as -14% and the Z score worked out at 2.26.

Turning to `CCN(C)S(=O)(=O)N(C)CC1(CO)CCC1`, the “% Inhibition” value is reported as -7% and the Z score was determined as 0.63.

For the compound `CCc1cnc([C@H](C)NCCCC#N)s1`, the “% Inhibition” value was -13% and the Z score came to 1.61.

For the compound `O=C(COC(=O)c1ccc2c(c1)CCCC2)Nc1ccc2[nH]c(=O)[nH]c2c1`, the “% Inhibition” value is given as -12% and the Z score stood at 1.96.

As for `COc1ccccc1CNCCNC(=O)c1ccncc1`, the “% Inhibition” value amounted to 35% and the Z score is given as -1.18.

Consider `COCC(=O)N1CCC[C@H](n2cnc3ccccc3c2=O)C1`, for which the “% Inhibition” value is -1% and the Z score turned out to be 0.09.

`Cc1cnc(C(=O)N[C@H]2CCN(c3ccc4nncn4n3)C2)cn1`: the “% Inhibition” value is reported as -5% and the Z score was 0.83.

With `Cc1nc(CN2CCN(Cc3cccnc3)[C@H]3CS(=O)(=O)C[C@H]32)no1`, the “% Inhibition” value is -13% and the Z score is given as 1.12.

`O=S(=O)(c1ccc(F)c(Cl)c1)N1CC[C@H](Oc2ccncc2Cl)C1`: the “% Inhibition” value is listed as 72% and the Z score is -13.57.

With `Cc1nnccc1NC(=O)N[C@@H]1COC(C)(C)O[C@@H]1c1ccccc1`, the “% Inhibition” value was -5% and the Z score is 0.74.

`N#Cc1nccnc1NCc1noc(C2CC2)n1`: the “% Inhibition” value is -3% and the Z score stood at 0.3.

Regarding `COC(=O)CNC(=O)N1CCC(N2CC3(CCCCC3)[C@H]2c2ccccc2)CC1`, the “% Inhibition” value is on record as -5% and the Z score is given as 0.85.

As for `Cc1c(Cl)cccc1NC(=O)CC1CC2CCC1C2` (configuration not stated), the “% Inhibition” value was -12% and the Z score turned out to be 1.16.

On to `c1ccc(C[C@@H]2NCCc3c2[nH]c2ccccc32)cc1`, for which the “% Inhibition” value is -1% and the Z score is listed as 0.11.

Consider `CNc1ncccc1C(=O)NC[C@H]1CCN(c2cnn(C)c(=O)c2)C1`, for which the “% Inhibition” value worked out at 5% and the Z score is -0.6.
